Data on five molecules can be found in PubChem BioAssay (NCATS).

Assay in all cases: Confirmatory Screen for Target Class Profiling of Small Molecule Inhibitors of Methyltransferases (AID 1745852);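 further: inhibitor potency for blocking SAH production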
For assay [1], the target named is Catechol O-methyltransferase (Homo sapiens) (UniProt P21964). The settings on record: MTase-Glo luminescence, SAH detection, recombinant enzyme; measured here: COMT inhibition potency.
Assay [2] concerns the target Histamine N-methyltransferase (Homo sapiens) (UniProt P50135). The settings on record: MTase-Glo luminescence, SAH detection, recombinant enzyme; measured here: HNMT inhibition potency.
Assay [3] has as its target Nicotinamide N-methyltransferase (Homo sapiens) (UniProt P40261). The settings on record: MTase-Glo luminescence, SAH detection, recombinant enzyme; measured here: NNMT inhibition potency.
The target in assay [4] is Phenylethanolamine N-methyltransferase (Homo sapiens) (UniProt P11086). The settings on record: MTase-Glo luminescence, SAH detection, recombinant enzyme; measured here: PNMT inhibition potency.

Some of the results follow. Further columns of the screen follow, without active or inactive calls. Compounds called inactive in the main read-out are mostly missing here. Words in brackets tell the shape of the fitted curve; partial curves, single points and poor fits give uncertain potencies.
Tags describe the fitted curve by direction and shape.

UniProt P21964, sequence (P21964 whole entry, looked up): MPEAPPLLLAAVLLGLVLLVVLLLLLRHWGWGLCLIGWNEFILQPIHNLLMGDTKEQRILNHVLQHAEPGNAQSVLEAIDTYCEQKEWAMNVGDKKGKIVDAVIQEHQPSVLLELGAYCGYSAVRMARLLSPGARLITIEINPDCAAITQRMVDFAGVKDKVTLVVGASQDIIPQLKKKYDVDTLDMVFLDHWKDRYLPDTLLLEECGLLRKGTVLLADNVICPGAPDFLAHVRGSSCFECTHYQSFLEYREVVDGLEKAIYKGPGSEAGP
UniProt P11086, sequence (P11086 whole entry, looked up): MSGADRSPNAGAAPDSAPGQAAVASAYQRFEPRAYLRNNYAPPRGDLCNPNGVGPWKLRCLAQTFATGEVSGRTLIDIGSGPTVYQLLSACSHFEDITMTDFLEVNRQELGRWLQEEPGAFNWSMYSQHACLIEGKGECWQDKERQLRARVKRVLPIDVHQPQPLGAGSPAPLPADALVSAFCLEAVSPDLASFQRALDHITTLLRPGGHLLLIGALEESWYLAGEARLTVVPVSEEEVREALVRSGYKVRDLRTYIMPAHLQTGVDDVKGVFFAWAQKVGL
UniProt P50135, sequence (P50135 whole entry, looked up): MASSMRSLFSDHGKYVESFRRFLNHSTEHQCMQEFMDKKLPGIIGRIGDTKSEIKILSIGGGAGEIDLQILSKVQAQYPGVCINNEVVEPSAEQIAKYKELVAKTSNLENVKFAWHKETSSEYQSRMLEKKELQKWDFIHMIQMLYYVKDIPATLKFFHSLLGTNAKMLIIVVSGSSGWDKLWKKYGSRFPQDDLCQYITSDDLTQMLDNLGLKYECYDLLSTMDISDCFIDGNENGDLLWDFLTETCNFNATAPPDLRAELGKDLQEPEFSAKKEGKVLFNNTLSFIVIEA
UniProt P40261, sequence (P40261 whole entry, looked up): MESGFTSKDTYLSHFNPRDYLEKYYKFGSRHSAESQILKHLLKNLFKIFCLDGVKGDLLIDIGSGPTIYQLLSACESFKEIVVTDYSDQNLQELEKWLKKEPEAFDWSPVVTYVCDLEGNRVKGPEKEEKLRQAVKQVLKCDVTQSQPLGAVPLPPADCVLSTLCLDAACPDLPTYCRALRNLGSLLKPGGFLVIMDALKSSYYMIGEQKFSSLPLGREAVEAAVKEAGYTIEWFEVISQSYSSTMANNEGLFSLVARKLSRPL

`CCCNc1ccc2ncc(-c3ccc4[nH]ncc4c3)n2n1`: the IC50 (as a rule, the concentration that inhibits the measured activity by half) in assay [1] is 6.07 µM [falling, full curve]; in assay [2] it was 5.41 µM [falling, full curve]; in assay [3], 7.64 µM [falling, full curve]; in assay [4], 4.82 µM [falling, partial curve].

On to `c1cn2cc(-c3ccc4cn[nH]c4c3)nc(Nc3ccc(N4CCOCC4)cc3)c2n1`, for which the IC50 in assay [1] was 19.2 µM [falling, partial curve]; in assay [2] it was 21.5 µM [falling, partial curve]; in assay [3], 21.5 µM [falling, partial curve]; in assay [4], 19.2 µM [falling, partial curve].

Regarding `Cc1oc(C(=O)O)cc1COc1ccc2c(-c3ccccc3)cc(=O)oc2c1C`, the IC50 in assay [1] was 34.1 µM [falling, partial curve]; in assay [2], 30.4 µM [falling, single point]; in assay [3], 24.1 µM [falling, partial curve].

As to `COCCCNC(=O)c1cnc2n[nH]c(-c3ccccc3)c2n1`, the IC50 in assay [1] is 35 µM [falling, partial curve]; in assay [2] it was 35 µM [falling, partial curve]; in assay [3], 35 µM [falling, partial curve]; in assay [4], 31.2 µM [falling, partial curve].

On to `O=C(NCCc1ccc(Cl)cc1)c1ccc2c(=O)[nH]c3c(C(=O)NC4CCCC4)sc(=S)n3c2c1`, for which the concentration for half-maximal inhibition (IC50) is 24.1 µM [falling, single point] in assay [1]; 30.4 µM [falling, single point] in assay [2]; 24.1 µM [falling, partial curve] in assay [3]; 27.1 µM [falling, partial curve] in assay [4].
